# Data taken from the supplement of paper PMC11417369.
# Some of the results follow.
# System: PfSIP2 AP2 domain 1 (GST-tagged)
# Assay: gcPBM binding intensity (ln(normalized median fluorescence intensity)); higher = stronger DNA binding
# In short: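 DNA-binding domains from P. falciparum, fused to GST and produced in E. coli, were put on an Agilent 4 × 180k double-stranded probe array for 1 h in 1× PBS holding 1% milk, 0.2 mg/ml BSA, 0.5% salmon testes DNA and 0.03% Triton X-100. Probes were primer-extended, 36 bp long and drawn from intergenic genomic regions, with negative controls included. After Alexa488 anti-GST antibody detection and a 488 nm scan, binding intensity was set as the highest Masliner-normalised natural-log median intensity across replicate spots of either probe orientation.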
row,Sequence,gcPBM binding intensity (ln)
1,TTCCTGTTAATTACAACACACAATTCTTATTTTATG [CACACA_site6507],6.94
2,CATACATACAGACACACACACATATAAATACATACA [CACACA_site6533],7.22
3,ATTTTCAAATTCTATGCATGTGTATATTATAGATAA [TGCATGCA_site1003],7.16
4,TTAACAAAACTTTTAACACACAAAAAAAAAAAAAAA [CACACA_site6947],6.92
5,CTATAATAATAAAGTGAACACACACCGATAATATAT [CACACA_site9377],7.02
6,TTATGATATATTTGTTGTACGCTTTTTTTATGAACT [XGTACX_site573],7.25
7,GTAAGTTGTGCATTCACACACATATAAATATAAATA [CACACA_site7536],7.88
8,CATTATGTTGTAAATGCACACATACAAATACATATA [CACACA_site8380],7.3
9,AATTAAATTACTTATACACACATAAAATGCCTGTAT [CACACA_site6597],6.88
10,ATGACCCACTTTTCTGCACACATAAAAAATATATAA [CACACA_site8092],7.9
11,AACACATACATATATACACACACAAAATAATAAAAT [CACACA_site8724],7.24
12,TTTTTTCTATTGAGCACACATATCACGATTAGTACT [CACACA_site313],7.14
13,ATATATATTATTTCTACACACATATATATAATATGT [CACACA_site3374],7.36
14,GCTCAATTTTTGGGTACACACAAATGTATAATAATA [CACACA_site2388],7.36
15,CAAAGAGAAATAAACACACACAAAATAAAGAAAAAA [CACACA_site2245],6.73
16,TTCTTTTTTCAACACACACACACAAGAAAATATATA [CACACA_site9019],7.59
17,AAAAAAAAAAAAAAAACACACATATAGATTTATATA [CACACA_site7196],7.41
18,GCACTCGTAAAAAGCACACATATAAAAACATTTATA [CACACA_site322],7.17
19,TGAACAGACAAATACACACACTCAAAAAAAAAAAAG [CACACA_site7287],7.01
20,CAATGCTTTATCAATACATGCATATATATAGAAATA [TGCATGCA_site857],6.9
21,AAAAATTTTTTTTCATTTGTTTTTATTCCGTAAAAA [CACACA_negctrl_site1217],6.9
22,AATATAAAAAAAAAATGTACATATTATATATATATA [XGTACX_site5113],8.66

row,Sequence,gcPBM binding intensity (ln)
1,ACCGAAGGAATTTATAGTACACATCATAAATAAATT [XGTACX_site4100],6.97
2,TATAATATAAAATAATGTACTTTGAAATATGACATA [XGTACX_site3579],6.91
3,AGTTTGATTTTTTCTTATAATATATTATTATATATT [CACACA_negctrl_site376],7.12
4,TTTTTATTAATAGATATAAATATATAATATGAATGT [TGCATGCA_negctrl_site309],7.04
5,ATATATATATATATTTGTACAGATTTATATTATAAT [XGTACX_site7612],9.49
6,CCATATAATATGAACAGTACACACAAAATAAATTCG [XGTACX_site7590],7.08
7,AAATATTATAGCACCACACACTTATTTTATATATAT [CACACA_site5281],8.08
8,GAAAATTTAATATAGAACGAAAGCATACACATATAT [GTGCAC_negctrl_site424],7.06
9,ATATGTGATTTCTAATGTACACAAAAAAAAAAAAAA [XGTACX_site7701],7.15
10,TTATGTCATAAATGCACACATATATAAATACAGATA [CACACA_site4959],7.32
11,TCTTCAAACAAAAAAAATAATAAAAAGTACAAAATG [CACACA_negctrl_site363],7.35
12,TTTTTGTTTTTGTTTTGTACTCATACATACTATCAT [XGTACX_site4210],6.99
13,GGGGTATCTTCCTATGCACACTTGTTATGTACTAAC [CACACA_site4610],7.89
14,CTTTTATTAAAATTCACACACATAAATTTTTATAAA [CACACA_site1993],6.99
15,ATATATACGTATGAATGTATATTTGTTTGATTTTTT [CACACA_negctrl_site835],6.77
16,ATTTTCATGATAAAGGTGCAATTATTTTTATAAGAA,10.8
17,TATATATATATATATGGTACAGTTTATGCCTTTTAA [XGTACX_site6695],9.38
18,TTATTTATAATATATACACACTAACATTATTTATCC [CACACA_site4835],6.9
19,TATAATATATACAAATGTACATATATATATATATAT [XGTACX_site4559],9.73
20,ATATATATGTGAAAATCACACATTGCTTATCTGTAA [CACACA_site6044],6.9
21,TGTTTTATTATTTATAGTACATAAAAAAATATTGTA [XGTACX_site8963],7.12
22,AACAATATTATTGTTTGTACTCACATATATAATATA [XGTACX_site8063],7.13

row,Sequence,gcPBM binding intensity (ln)
1,TTCGTATATTATTAATGTACATTATAAAATCAATAT [XGTACX_site5751],7.08
2,AAAAAAACATGAAACACACACAAATATATATATATA [CACACA_site1884],9.56
3,AAAAAAAAAAAAAAAAAAAAAAAAAAAATTCTATAT [GTGCAC_negctrl_site468],8.67
4,AAGGCATACAATACCTGTACGCAACCTTAAAAAGAA [XGTACX_site6070],7.34
5,AGATATTTCATTTAAAGTACATTCTTTATCACATAA [XGTACX_site6731],6.99
6,CACACGCACAAAAACACACACAAAGGTGTTCTTATA [CACACA_site6724],7.12
7,TTATTTTTTTTTTTTCGTACTTATTTATCTTGGTAT [XGTACX_site78],6.86
8,GGATTTATTATATATACACACATACATATATATATA [CACACA_site8669],9.44
9,GTCTAAGCTTATAGGCGTACACATGAATATGGATGT [XGTACX_site2439],7.16
10,ATACATAAAATTAAAACACACATTTGATTAAATACG [CACACA_site7088],7.08
11,AAAGGATACAGACACACACACACATATATATATATA [CACACA_site906],9.05
12,ATTATATAATTGTCTTCACACACACCGATATATATA [CACACA_site8883],7.39
13,ATAAGAAAAAAGAACTGTACTAATAAAATATAAAAA [XGTACX_site3715],6.99
14,ATAATATATATACAAACACACAATTGTGTCCACATT [CACACA_site1747],7.15
15,TGTACATATATATAATATATATATCATCATATTTTC [CACACA_negctrl_site1750],7.21
16,TCCTTAAAATATATCACACATTTCGTTCATTTATAA [CACACA_site4346],7.11
17,AGTATACGAATAAAATGTACATACAAATTGTTGTAA [XGTACX_site36],6.89
18,TATATATATATATCCACACACATACAGATATTAAGA [CACACA_site4214],9.28
19,ATATATATATATATATGTACATATATATACATATAT [XGTACX_site6987],9.42
20,ATTCACGTGTCTTAAAAAAAAAAAAAAGAAAAAAAG [CACACA_negctrl_site573],6.85
21,TCAGGAATATAAAGTGCACACATAATTTGGGGGCAA [CACACA_site7974],11.2
22,TATATAAGGATATATACACACATATAGGTATTTATA [CACACA_site7092],6.94

row,Sequence,gcPBM binding intensity (ln)
1,TTTTAAAAAAATAAAAAATAATAAAAAAAATAAAAA [CACACA_negctrl_site1693],6.76
2,AATATGATTATTACCCGTACATATTACCTTATGGTA [XGTACX_site1714],6.78
3,AATGATATTATCTCTTCACACACTCACATACAGACA [CACACA_site8335],7.03
4,AAAAATAAATAAAGTGGTACATAAAAAAGAGAAATT [XGTACX_site874],7.08
5,GTGCATATGTAGATATGTACATATTTATTTATTATT [XGTACX_site7343],9.21
6,GCGGCGGTATCATGCACACGTATATATTGTAACAGT [CACACA_site4958],7.43
7,TCATTGAAAAAAATGTGTACTCATCAAGTATATATT [XGTACX_site6430],7.29
8,TTTACAGATACATTCACACATAAATTCATGTATAAT [CACACA_site5387],7.03
9,ATATATAATTTTTGTTGTACATTATAAAAATAATTA [XGTACX_site2738],7.2
10,ATTGTTATGAGAACAGCACACAAGCTACATCATATA [CACACA_site8192],6.99
11,TTTTTTTTTTTTTCTTCACACACAGTACTACTATTT [CACACA_site8759],7.01
12,TTAGCTTTTTTTTAAACATGCAACTACTTGATCCAC [TGCATGCA_site1017],7.07
13,TATTTATTATTATGTACACACTATATTAAAACATAA [CACACA_site4549],7.08
14,AGTATACGCAGACACACACACACATATATATATATA [CACACA_site1735],9.65
15,TATGTGAATCCTAAGTGTACACATCTTACATATATA [XGTACX_site2506],7.46
16,GGTATATGCATAAAGAGTACGTAACTTCTTTTTGTT [XGTACX_site6344],7.31
17,ATAAGATGATTAATTACACACTTTATAGGATATTTA [CACACA_site1711],6.76
18,AAATGTGTAAATATAATTAGTTTCACAAAACAAATA [GTGCAC_negctrl_site543],6.78
19,TATATAATATTCTACACACCAACAACAAACATATAT [CACACA_site567],7.16
20,ATATTCTGATTTTAGATGCACTTCGTTAACAAAATA [GTGCAC_site9958],7.93
21,ATATATATATTTATATGTACATAATATAAAATTTCT [XGTACX_site3720],8.43
22,TTATATATATGTGTATGTACATATATATATATATAT [XGTACX_site1141],9.54
